Assay results published in PubChem BioAssay AID1508624 (National Center for Advancing Translational Sciences (NCATS), 2021).
In all, about 48,000 compounds went through this assay and about 120 (0.25%) were called active. Roughly 4% stayed inconclusive and do not appear here. Calls follow the shape of the dose curve; as a rule, active = well fitted activation curve with a large enough effect; inconclusive = small, poorly fitted or top-dose-only effect, or another doubt; inactive = no such curve, though single readings can be large or run the other way. The list shows a part of the results.

assay: Primary qHTS for Identification of Small Molecule Activators of Huntingtin-Antisense Promoter Activity; conditions: HEK293 HTT-AS promoter firefly luciferase reporter (activity 0% = vehicle and -100% = no light), 24 h; series mostly up to 57.5 µM; activity change, positive = activation: at the top concentration; also: nearly all actives have a fitted effect of over 55% in size
Outline: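 Firefly luciferase readout (Dual-Glo, 10 min RT) after 24 h, 37 °C compound exposure (final up to 57.5 uM) of HEK293 reporter cells cultured 24 h beforehand; PTC124 at 50 uM final as control inhibitor; activity scaled vehicle 0%, zero RLU -100%.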

SMILES	activity change, positive = activation
CCc1nn(CC(=O)NCCC(C)C)c(=O)c2cc3occc3n12	inactive: -11.6%
CCn1c(C)c(C2N3CC4(C)CN2CC(CC)(C3)C4=O)c2ccccc21 (centres undefined)	inactive: 2.38%
Cc1ccc(CNC(=O)C(=O)NCC(c2cccs2)S(=O)(=O)c2ccc(C)cc2)cc1 (centres undefined)	inactive: -38.5%
COC(=O)c1sccc1S(=O)(=O)N(CC(=O)NCc1ccccc1)c1ccccc1	inactive: -18%
Cc1c(C(=O)N2CCC(C)CC2)c(S(=O)(=O)NCc2ccccc2)c(C)n1C	inactive: -2.67%
Cc1nn(C(=O)c2ccccc2F)c(C)c1S(=O)(=O)N1CCOCC1	inactive: -9.1%
COc1cccc(CC(=O)Nc2ccc3nc(N4CCC(C)CC4)cc(C)c3c2)c1	inactive: -34.9%
CCOc1ccc(CNC(=O)CCC(=O)N2CC3CCCN3c3ccccc32)cc1 (centres undefined)	inactive: -9.14%
COc1ccc(Cl)cc1NC(=O)c1cc(S(=O)(=O)N2CCC(C)CC2)cn1C	inactive: -16.1%
CCN1CCN(C(c2cccc(F)c2)c2c(O)cc(C)n(CCOC)c2=O)CC1 (centres undefined)	inactive: 0.406%
CCc1nc2cccnc2n1-c1ccc(CC(=O)Nc2ccccc2Cl)cc1	inactive: -17.2%
Cc1cccc(NC(=O)CSc2nc3c(oc4ccccc43)c(=O)n2Cc2ccco2)c1	inactive: -8.75%
C=C[C@H]1CN2CC[C@H]1C[C@H]2[C@H](O)c1ccnc2ccc(OC)cc12	inactive: -3.02%
CC(C)C(=O)Nc1ccc2nc(SCC(=O)N3CCOCC3)sc2c1	inactive: 1.03%
Cc1cc(NS(=O)(=O)c2ccc3nc(-c4ccccc4)[nH]c3c2)ccc1Br	inactive: -35.6%
Cc1ccc(C)n1-c1nnc(N2CCC(C(=O)NCc3ccc(F)cc3)CC2)s1	inactive: 0.126%
CCOC(=O)c1c(N)n(-c2ccccc2CC)c2nc3ccccc3nc12	inactive: -8.36%
Cc1ccc(N2CC(c3nnc(NC(=O)c4ccco4)s3)CC2=O)cc1Cl (centres undefined)	inactive: -3.24%
O=S(=O)(c1ccc(Br)cc1)c1nnn2c1nc(NC1CCCCCC1)c1sccc12	inactive: -13.2%
COc1ccc(-c2cn3cccnc3n2)cc1NC(=O)c1c(F)cccc1F	inactive: -7.06%
COc1cccc(CNC(=O)C2CCN(S(=O)(=O)c3ccc4c(ccn4C)c3)CC2)c1	inactive: -20.9%
CSc1ccc(C2c3[nH]c4ccccc4c3CCN2C(=O)CCc2ccccc2)cc1 (centres undefined)	inactive: -38%
COc1cc(Cl)c(C)cc1NC(=O)CCn1c(=O)c2cccn2c2cccnc21	inactive: -6.22%
CC(C)c1nc2ccc(C(=O)NCc3ccc(N(C)C)cc3)cc2o1	inactive: 11.3%
Cc1ccc(-n2nc3c(=O)n(CCCC(=O)NCCc4ccccc4)nc(C)c3c2C)cc1	inactive: 14.1%

SMILES	activity change, positive = activation
Cc1cccc(CCNC(=O)CCS(=O)(=O)c2cc3c(cc2Cl)NC(=O)CO3)c1	inactive: -18.7%
COc1ccc(C)cc1Nc1nc2ccccc2c2nnc(C)n12	inactive: -16%
COC(=O)c1cc2occc2n1CC(=O)Nc1cccc(SC)c1	inactive: 8.92%
O=S(=O)(NCC(c1ccco1)N1CCN(c2ccc(F)cc2)CC1)c1ccccc1 (centres undefined)	inactive: -18.8%
CC(=O)NCCCCCC(=O)O	inactive: -0.246%
CCn1c(=N)c(C(=O)NCc2cccnc2)cc2c(=O)n3cc(C)ccc3nc21	inactive: -2.57%
COc1ccc(-c2nc(CSCC(=O)NCCc3ccc(C)cc3)c(C)o2)cc1OC	inactive: -18.9%
CCCCN(Cc1ccccc1)S(=O)(=O)c1ccc2c(c1)CC(C)N2C(=O)CC (centres undefined)	inactive: -40.4%
COc1ccccc1Cc1nc2ccccc2nc1SCC(=O)NCCc1ccccc1	inactive: -8.09%
CCN(CC)CCCNC(=O)c1c(C)oc2ncnc(N3CCOCC3)c12	inactive: 4.06%
CN(C(=O)CSc1nc2ccccc2n1CC(=O)NCc1ccc(F)cc1)c1ccc(F)cc1	inactive: -4.94%
CCOC(=O)Cn1cc2c(c1-c1ccc(Cl)cc1)c(=O)n(C)c(=O)n2C	inactive: 1.61%
CCc1noc2nc(C)n(CC(=O)O)c(=O)c12	inactive: -0.145%
Cc1c(C(=O)NCc2ccc(Cl)cc2)sc2nc3n(c(=O)c12)CCCC3	inactive: -5.07%
O=c1n(CCCN2CCN(c3cccc(Cl)c3)CC2)nc2ccccn12	inactive
CCOc1ccc(CNC(=O)c2ccc(NC(=O)c3nsc4ccccc34)cc2)cc1	inactive: -32.8%
CCC(=O)Nc1sc2c(c1C(=O)Nc1ccccc1C)CCC(C)C2 (centres undefined)	inactive: -32%
Cn1c(=O)c2sccc2n2c(CCC(=O)N3CCN(c4ccccc4)CC3)nnc12	inactive: -14.7%
O=C(O)c1cc(=O)[nH]c(=O)[nH]1	inactive
Cc1nc(N)nc(N)c1-c1ccc(Cl)c(Cl)c1	inactive: -23%
CCC(Cc1ccccc1)NC(=O)c1oc(=O)c2ccccc2c1-c1ccccc1 (centres undefined)	inactive: -7.72%
COC(=O)c1ccccc1NC(=O)c1noc2c1CSc1ccccc1-2	inactive: -7.1%
COc1ccc2nc(NC(=O)c3ccc(S(=O)(=O)N4CCC(C)CC4)cc3)sc2c1	inactive: -26.6%
CCc1ccc(NC(=O)N2CCN(Cc3cc(=O)n4nc(-c5ccccc5OC)sc4n3)CC2)cc1	inactive: 1.41%
